Whole data set: some 81,000 sequences, median “one-hybrid fitness for binding parS DNA” near -0.17, cut for the highest 2% near 0.51. Some of the results follow.
B1: Caulobacter ParB omega fusion; a variant is named by its letters at X, in order, B8GW30 (parent)
chain: MESVVVGEPGMSEGRRGLGRGLSALLGEVDAAPAQAPGEQLGGSREAPIEILQRNPDQPRRTFREEDLEDLSNSIREKGVLQPILVRPSPDTAGEYQIVAGERAWRAAQRAGLKTVPIMVRELDDLAVLEIGIIENVQRADLNVLEEALSYKVLMEKFERTQENIAQTIGKSXSHVANXMRLLXLPDEVQSYLVSGELTAXHARAIAAAADPVALAKQIIEGGLSVRETEALARKAPNLSAGKSKGGRPPRVKDTDTQALESDLSSVLGLDVSIDHRGSTGTLTITYATLEQLDDLCNRLTRGI

Variants of: B1
Test: one-hybrid fitness for binding parS DNA (scaled: cognate 1, non-cognate 0); higher = stronger binding
Conditions: with parS DNA site
In short: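 Bacterial one-hybrid selection in E. coli USO rpoZ- hisB- pyrF- with a HIS3 reporter carrying the site 19 bp from the promoter, screening Caulobacter ParB libraries with four specificity codons randomised (NNS). Cells grew 48 hours at 37°C on M9-minus-histidine plus 0.1 mM IPTG and 5 mM 3-AT. Plasmids before and after selection were Illumina-sequenced, three replicate libraries pooled, and variants under 10 reads dropped. Fitness is the log change in variant-to-wild-type read ratio, rescaled to cognate 1, non-cognate 0.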

Row | Variant | one-hybrid fitness for binding parS DNA
1 | DTKG | ≤ 0.2
2 | LVSK | ≤ 0.2
3 | RSPS | 0.541
4 | TMAV | ≤ 0.2
5 | RANC | 0.98
6 | ASVI | ≤ 0.2
7 | MTHL | ≤ 0.2
8 | SYLR | ≤ 0.2
9 | IPQH | ≤ 0.2
10 | VKYS | ≤ 0.2
11 | WMSM | ≤ 0.2
12 | LKRG | ≤ 0.2
13 | QSRH | ≤ 0.2
14 | NFDV | ≤ 0.2
15 | HIDG | ≤ 0.2
16 | KASC | ≤ 0.2
17 | DAYC | ≤ 0.2
18 | HAVC | ≤ 0.2
19 | EGAG | ≤ 0.2
20 | FPQN | ≤ 0.2
21 | QAGF | ≤ 0.2
22 | TVYE | ≤ 0.2
23 | MNNC | ≤ 0.2
24 | LFHC | ≤ 0.2
25 | ASAW | ≤ 0.2

Row | Variant | one-hybrid fitness for binding parS DNA
26 | WAEG | ≤ 0.2
27 | GQLR | ≤ 0.2
28 | SNTR | ≤ 0.2
29 | AHKN | ≤ 0.2
30 | QINR | ≤ 0.2
31 | KWEG | ≤ 0.2
32 | VCPP | ≤ 0.2
33 | KVPT | ≤ 0.2
34 | GCPN | ≤ 0.2
35 | GEGS | ≤ 0.2
36 | EMTT | ≤ 0.2
37 | PAEM | ≤ 0.2
38 | GRCM | ≤ 0.2
39 | SGVD | ≤ 0.2
40 | RRWM | ≤ 0.2
41 | PKNA | ≤ 0.2
42 | GLPM | ≤ 0.2
43 | IISY | ≤ 0.2
44 | PPPH | ≤ 0.2
45 | EIGT | ≤ 0.2
46 | WVES | ≤ 0.2
47 | SLPF | ≤ 0.2
48 | QMIY | ≤ 0.2
49 | KLAC | ≤ 0.2
50 | RGFG | 0.504

Row | Variant | one-hybrid fitness for binding parS DNA
51 | AIHY | ≤ 0.2
52 | RIMC | 0.986
53 | RQKM | 0.365
54 | VSDS | ≤ 0.2
55 | CRSN | ≤ 0.2
56 | HWRS | ≤ 0.2
57 | CDIR | ≤ 0.2
58 | EPDC | ≤ 0.2
59 | WAKD | ≤ 0.2
60 | GDFS | ≤ 0.2
61 | IRAT | ≤ 0.2
62 | GNQN | ≤ 0.2
63 | LMDV | ≤ 0.2
64 | WPAN | ≤ 0.2
65 | CWYR | ≤ 0.2
66 | VWQD | ≤ 0.2
67 | NTRA | ≤ 0.2
68 | KSAI | ≤ 0.2
69 | QCLT | ≤ 0.2
70 | YRKT | ≤ 0.2
71 | EMAG | ≤ 0.2
72 | GPCF | ≤ 0.2
73 | SWIR | ≤ 0.2
74 | GNKI | ≤ 0.2
75 | ESDG | ≤ 0.2

Row | Variant | one-hybrid fitness for binding parS DNA
76 | MVLY | ≤ 0.2
77 | RGGT | 0.493
78 | RDCT | ≤ 0.2
79 | CALI | ≤ 0.2
80 | PNTM | ≤ 0.2
81 | AREP | ≤ 0.2
82 | LSWR | ≤ 0.2
83 | SLRS | ≤ 0.2
84 | QQSL | ≤ 0.2
85 | WTNW | ≤ 0.2
86 | RMYW | 0.216
87 | LCAV | ≤ 0.2
88 | YHYF | ≤ 0.2
89 | TLMP | ≤ 0.2
90 | LIPC | ≤ 0.2
91 | PWNM | ≤ 0.2
92 | SKWG | ≤ 0.2
93 | SYTA | ≤ 0.2
94 | GDQS | ≤ 0.2
95 | IAKY | ≤ 0.2
96 | WTIG | ≤ 0.2
97 | MAVH | ≤ 0.2
98 | ETAR | ≤ 0.2
99 | ATSS | ≤ 0.2
100 | AHLT | ≤ 0.2

Row | Variant | one-hybrid fitness for binding parS DNA
101 | RLPE | ≤ 0.2
102 | DPGG | ≤ 0.2
103 | STQT | ≤ 0.2
104 | RNNN | 0.385
105 | EAKT | ≤ 0.2
106 | VAGI | ≤ 0.2
107 | FYPL | ≤ 0.2
108 | WRAI | ≤ 0.2
109 | GRRF | ≤ 0.2
110 | QLGE | ≤ 0.2
111 | ANIS | ≤ 0.2
112 | NLVY | ≤ 0.2
113 | RCGT | 0.882
114 | EFKS | ≤ 0.2
115 | KQRM | ≤ 0.2
116 | SLLA | ≤ 0.2
117 | SYWR | ≤ 0.2
118 | KLII | ≤ 0.2
119 | VVGT | ≤ 0.2
120 | PDDC | ≤ 0.2
121 | PYWF | ≤ 0.2
122 | QVFP | ≤ 0.2
123 | STDS | ≤ 0.2
124 | VLIR | ≤ 0.2
125 | MPER | ≤ 0.2

Row | Variant | one-hybrid fitness for binding parS DNA
126 | ARPP | ≤ 0.2
127 | VPRS | ≤ 0.2
128 | PTET | ≤ 0.2
129 | QTVK | ≤ 0.2
130 | IPHC | ≤ 0.2
131 | ARYY | ≤ 0.2
132 | QWNT | ≤ 0.2
133 | PCPT | ≤ 0.2
134 | KQNY | ≤ 0.2
135 | RCTC | 1
136 | TARC | ≤ 0.2
137 | QWTQ | ≤ 0.2
138 | QVTM | ≤ 0.2
139 | RDHI | ≤ 0.2
140 | FWPR | ≤ 0.2
141 | ENSG | ≤ 0.2
142 | WTKG | ≤ 0.2
143 | RALS | 1.03
144 | SLWS | ≤ 0.2
145 | LMHG | ≤ 0.2
146 | SFGG | ≤ 0.2
147 | NAYS | ≤ 0.2
148 | VNAS | ≤ 0.2
149 | IEQS | ≤ 0.2
150 | KMQG | ≤ 0.2

Row | Variant | one-hybrid fitness for binding parS DNA
151 | SEKG | ≤ 0.2
152 | SHID | ≤ 0.2
153 | KAEM | ≤ 0.2
154 | KEVR | ≤ 0.2
155 | MSIG | ≤ 0.2
156 | KQSH | ≤ 0.2
157 | NCHC | ≤ 0.2
158 | TATF | ≤ 0.2
159 | TMDA | ≤ 0.2
160 | NSME | ≤ 0.2
161 | LMKV | ≤ 0.2
162 | MHQL | ≤ 0.2
163 | IIGI | ≤ 0.2
164 | ASGN | ≤ 0.2
165 | FLDK | ≤ 0.2
166 | GRNS | ≤ 0.2
167 | RRSK | ≤ 0.2
168 | GSYP | ≤ 0.2
169 | EPLI | ≤ 0.2
170 | WCRK | ≤ 0.2
171 | GGET | ≤ 0.2
172 | MISY | ≤ 0.2
173 | VIEN | 0.231
174 | QQNC | ≤ 0.2
175 | SCIS | ≤ 0.2

Row | Variant | one-hybrid fitness for binding parS DNA
176 | QKKG | ≤ 0.2
177 | HQWG | ≤ 0.2
178 | VARD | ≤ 0.2
179 | GYTR | ≤ 0.2
180 | KKSY | ≤ 0.2
181 | MGKS | ≤ 0.2
182 | PGDL | ≤ 0.2
183 | DSQG | ≤ 0.2
184 | NTQS | ≤ 0.2
185 | RRNT | 0.565
186 | CLIA | ≤ 0.2
187 | SGKS | ≤ 0.2
188 | MGMR | ≤ 0.2
189 | HPFM | ≤ 0.2
190 | SNAN | ≤ 0.2
191 | KFMS | ≤ 0.2
192 | HSYI | ≤ 0.2
193 | LKHL | ≤ 0.2
194 | GAAP | ≤ 0.2
195 | ITIT | ≤ 0.2

Reference: a collection of fitness landscapes (doi:10.1016/j.celrep.2020.107928)
